Measurements published in PubChem BioAssay AID686978 (National Center for Advancing Translational Sciences (NCATS), 2013).
The whole screen tested about 420,000 compounds, of which about 64,000 (15%) were called active. Inconclusive means that the source gave no clear call. Such entries were picked first, then a sample of the others. Calls come from the whole dose curve; as a rule, active = well fitted inhibition curve with a large enough effect; inconclusive = small, poorly fitted or top-dose-only effect; inactive = flat fitted curve, though single readings scatter. Potencies of inconclusive entries are left out as doubtful fits.

assay: qHTS for Inhibitors of human tyrosyl-DNA phosphodiesterase 1 (TDP1): qHTS in cells in absence of CPT; conditions: DT40 Tdp1-/- hTDP1 cells, no CPT, ATP luminescence, 48 h; activity change, negative = growth inhibition: at 46.2 µM (top of the series) unless noted; note: nearly all actives have a fitted effect of over 55% in size
Summary of the method: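 A cellular qHTS used chicken DT40 cells lacking endogenous Tdp1 but carrying stably transfected human TDP1. Compounds were applied without camptothecin, and cell growth kinetics were judged by ATP-dependent luminescence after ≥48 hr.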
% is set by controls: 0 for no effect and ±100 for the full control effect; potency is the fitted concentration of half-maximal effect; tags give direction and shape of the fitted curve.

| SMILES | Potency | activity change, negative = growth inhibition |
| --- | --- | --- |
| COc1ccc2nc3n(c(=O)c2c1)-c1ncccc1C(=O)NC3C (stereo unspecified) | inconclusive [inhibitor, full curve, poor fit] | – |
| Cc1cccc(NC(=O)CN2CCN(C(=O)C3CCCO3)CC2)c1C (stereo unspecified) | inactive | – |
| CCCCCn1c(=O)c(-c2nc3ccccc3[nH]2)c(O)c2ccccc21 | active: 9.2 µM | – |
| Cc1ccc(NS(=O)(=O)c2c(C(=O)N3CCCCCC3)c(C)n(C)c2C)c(C)c1 | inactive | – |
| CSc1nnc(C)c(=O)n1COC(=O)/C=C/c1ccc2c(c1)OCO2 | inactive | – |
| CCOC(=O)c1c(C)oc2nc(C)nc(NCc3ccc(OC)cc3OC)c12 | active: 13 µM | – |
| O=C(Nc1cc(C(F)(F)F)ccc1Cl)c1nc2ccccc2nc1N1CCCCC1 | inconclusive [inhibitor, partial curve] | – |
| CCOc1ccc(C(C)(C)C)cc1S(=O)(=O)N1CC(C)OC(C)C1 (stereo unspecified) | inconclusive [inhibitor, partial curve, poor fit] | – |
| COc1ccc(C(O)c2nc(-c3cccs3)cs2)cc1 (stereo unspecified) | inconclusive [inhibitor, single point] | – |
| CCn1c2ccccc2c2cc(NC(=O)COC(=O)Cc3cn4ccsc4n3)ccc21 | inconclusive [inhibitor, single point] | – |
| Cc1ccccc1CN1[C@@H](Cc2ccccc2)COCCS1(=O)=O | inconclusive [inhibitor, single point] | – |
| CC(=O)COc1ccc2c(-c3ccccc3)cc(=O)oc2c1 | inconclusive [inhibitor, single point] | – |
| Cc1cnc(C(=O)OCC(=O)N(C)CC(=O)Nc2ccccc2Cl)cn1 | inactive | – |
| O=C(Nc1ccc(S(=O)(=O)NCC2CCCO2)cc1)c1ccc(Cl)cc1[N+](=O)[O-] (stereo unspecified) | inconclusive [inhibitor, single point] | – |
| COc1ccccc1CNC(=O)COC(=O)CCC(=O)c1cccs1 | inactive | – |
| N#C/C(=C\c1cn(Cc2ccc(F)cc2)c2ccccc12)C(=O)NCc1ccco1 | inconclusive [inhibitor, single point] | – |
| COc1ccc(CCNC(=O)CSCc2ccc(Cl)cc2)cc1OC | inconclusive [inhibitor, single point] | – |
| CC1=CNC(=O)CC(C)(C)C1 | inactive | – |
| CC(=O)c1cccc(NC(=O)CSc2nnc(C(C)N(C)C)n2-c2ccc(F)cc2)c1 (stereo unspecified) | inconclusive [inhibitor, partial curve] | – |
| O=C(Cn1c(=O)nc(-c2ccccc2)c2ccccc21)NCc1ccc(Cl)cc1 | inconclusive [inhibitor, single point] | – |
| Cc1cc(C)c(S(=O)(=O)N2CCCCC2)cc1N(C)S(=O)(=O)c1ccc(Cl)cc1 | active: 16.4 µM | – |
| CCCC(=O)N1CCCC1(C)C(=O)NCc1ccc(F)cc1Cl (stereo unspecified) | inactive | – |
| Cc1ccc(N=C2NC(=O)/C(=C/c3cccs3)S2)cc1C | active: 10.3 µM | – |
| Cc1ccc(N=C2NC(=O)/C(=C/c3cccn3C)S2)c(C)c1 | active: 6.51 µM | – |

| SMILES | Potency | activity change, negative = growth inhibition |
| --- | --- | --- |
| CN1CCN(c2nc3c(=O)[nH]c(N)nc3n2C2OC(CO)C(O)C2O)CC1 (stereo unspecified) | inactive | – |
| Cn1cc(S(=O)(=O)Cc2ccc(F)cc2)c2ccccc21 | inactive | – |
| Cc1onc(-c2c(F)cccc2Cl)c1C(=O)N1CCSCC1 | inconclusive [inhibitor, single point] | – |
| C(=N\n1cnnc1)/c1cccn1-c1ccccc1 | inconclusive [inhibitor, single point] | – |
| CCn1c(=O)n(CC)c2cc(S(=O)(=O)NCCOc3ccccc3)c(C)cc21 | inconclusive [inhibitor, single point] | – |
| COc1ccc(Cl)cc1C1=NOC2(CCC2)C(=O)N1Cc1cccc(C#N)c1 | inconclusive [inhibitor, single point] | – |
| Cc1ccc(S(=O)(=O)N2CCN(C(=O)CCCOc3ccc(Cl)cc3C)CC2)cc1 | inconclusive [inhibitor, single point] | – |
| O=c1cc(CCl)nc(Cc2c(Cl)cccc2Cl)[nH]1 | inconclusive [inhibitor, single point] | – |
| COc1cccc(N2CCN(S(=O)(=O)c3ccc(-n4cnnn4)cc3)CC2)c1 | inconclusive [inhibitor, partial curve] | – |
| Cc1sc2ncnc(N3CCC(C(=O)Nc4ccccc4C(C)(C)C)CC3)c2c1C | active: 13 µM | – |
| CCOc1ccc(Cn2c(CNS(=O)(=O)c3ccc(Cl)s3)nc3cccnc32)cc1 | inconclusive [inhibitor, single point] | – |
| CCCCN(C(=O)Cc1coc2cc(C)c(C)cc12)c1c(N)n(Cc2ccccc2)c(=O)[nH]c1=O | inactive | – |
| CCOc1ccccc1NC(=O)C1CCN(S(=O)(=O)c2ccc3c(c2)CC(C)N3C(C)=O)CC1 (stereo unspecified) | inconclusive [inhibitor, single point] | – |
| CCOc1ccc(NCc2cc3c(C(C)(C)C)nn(-c4ccccc4)c3[nH]c2=O)cc1 | inconclusive [inhibitor, single point] | – |
| O=C(C1CCCCC1)N(Cc1nc2sc3c(c2c(=O)[nH]1)CCCC3)Cc1cccs1 | active: 13 µM | – |
| Cc1cc(C(=O)NC(=S)Nc2cccc(NC(=O)C(C)C)c2)ccc1[N+](=O)[O-] | inconclusive [inhibitor, partial curve, poor fit] | – |
| Cc1noc(C)c1S(=O)(=O)NC(=O)C1(C)CCN1C(=O)Cc1ccc(-c2ccccc2)cc1 (stereo unspecified) | inactive | – |
| COCCCNC(=S)N1CCN(c2ccccc2)CC1 | inactive | – |
| CCOc1ccc(C(=O)CN2C(=O)NC3(CCCc4ccccc43)C2=O)cc1 (stereo unspecified) | inconclusive [inhibitor, single point] | – |
| CCc1ccccc1NC(=O)c1ccccc1Sc1ccc([N+](=O)[O-])cc1Cl | inconclusive [inhibitor, single point] | – |
| COc1ccc(C2(CNC(=O)c3cccc([N+](=O)[O-])c3)CCOCC2)cc1OC | inconclusive [inhibitor, partial curve] | – |
| CC(C)(C#N)Nn1cnnc1 | inactive | – |
| CCOC(=O)c1c(NC(=O)c2cc(-c3ccc(O)cc3)on2)sc(C(C)=O)c1C | active: 5.8 µM | – |
| CC(C)OC(=O)CN1C(=O)c2ccccc2C1=O | inconclusive [inhibitor, single point] | – |

| SMILES | Potency | activity change, negative = growth inhibition |
| --- | --- | --- |
| COc1cc(C2C(C(=O)Nc3ccccc3C)=C(C)Nc3ncnn32)ccc1OCC(N)=O (stereo unspecified) | inactive | – |
| Cc1cccc(Nc2ncnc3onc(-c4ccc(F)cc4)c23)c1C | inconclusive [inhibitor, single point] | – |
| NC(=O)C1CC(=O)N(c2ccc(OCc3c(Cl)cccc3Cl)cc2)C1 (stereo unspecified) | inactive | – |
| O=C(NCC(c1ccc2c(c1)OCO2)N1CCOCC1)c1cccc(Cl)c1 (stereo unspecified) | inconclusive [inhibitor, full curve] | – |
| CC1CN(C(=S)Nc2cccc(F)c2)CC(C)O1 (stereo unspecified) | inactive | – |
| Cc1ccc2nc(-c3ccc(Cl)cc3)c(CC3CCCCC3)n2c1 | inconclusive [inhibitor, single point] | – |
| CCC(C)[C@H](NC(=O)OC(C)(C)C)C(=O)N/N=C/c1cccc2nccnc12 (stereo partly specified) | inconclusive [inhibitor, single point] | – |
| CN(C)c1ccc(S(=O)(=O)NCC(=O)N2CCN(S(=O)(=O)c3cccc(F)c3)CC2)cc1[N+](=O)[O-] | inconclusive [inhibitor, single point] | – |
| C=CCn1cccc(C(=O)Nc2cc(OC)ccc2OC)c1=O | inactive | – |
| Cc1ccc2nc(-c3ccc(SCC(=O)Nc4nnc(C)s4)nc3)[nH]c2c1 | active: 14.6 µM | – |
| CCOc1ccc(S(=O)(=O)NCCCN2CCOCC2)cc1 | inactive | – |
| CCCCCCCCN1C(=O)[C@H](CC(=O)NCCCN2CCCC2=O)C[C@@]2(C(=O)OC)CCCCC=C12 | inconclusive [inhibitor, single point] | – |
| CCC(CO)Oc1cc(NC(=O)c2ccccc2[N+](=O)[O-])c2ncn(C(C)C)c2c1 (stereo unspecified) | inconclusive [inhibitor, partial curve] | – |
| Cc1ccsc1C(=O)OCC(=O)Nc1cccc(S(=O)(=O)N2CCCCC2)c1 | inconclusive [inhibitor, single point] | – |
| CN1CC(=O)N(CC(=O)Nc2cccc(S(=O)(=O)N3CCOCC3)c2)C1=O | inactive | – |
| Cc1ccc(C(=O)N2CC(=O)Nc3ccc(C)cc3C2c2ccccc2)cc1 (stereo unspecified) | inconclusive [inhibitor, single point] | – |
| CCOC(=O)c1ccc(-c2ccc3c(c2)CCC3)nc1C | inconclusive [inhibitor, single point] | – |
| CNC(=O)c1c(NC(=O)C(C)C)sc2c1CCC2 | inconclusive [inhibitor, single point] | – |
| COc1cccc(/C=C2\SC(=S)N(CCC(=O)Nc3ccc(O)cc3)C2=O)c1 | inconclusive [inhibitor, partial curve] | – |
| COc1ccccc1OCC(=O)NCCSCc1ccc(Cl)cc1 | inconclusive [inhibitor, single point] | – |
| CCN(CC)C(=O)CSc1nc(-c2ccco2)cc(C(F)(F)F)c1C#N | inconclusive [inhibitor, single point] | – |
| COc1ccccc1N(CC(=O)NCC1CCCO1)C(=O)Cn1nnc(-c2cccs2)n1 (stereo unspecified) | – | inconclusive: -33.2% [inhibitor] |
| Cc1ccccc1NC(=O)C(C)Sc1nnc(-c2ccncc2)n1CC1CCCO1 (stereo unspecified) | inactive | – |
